# Data: PMC9911399, “Two distinct binding modes provide the RNA-binding protein RbFox with extraordinary sequence specificity”
# Residue numbers refer to the chain shown, from its start. This is one part of the list.
# T1: RBFOX1 RRM RbFoxmut (Fox-RRM*) (Homo sapiens, UniProt Q9NWB1 109-208, R118D;E147R;N151S;E152T)
# T1 sequence: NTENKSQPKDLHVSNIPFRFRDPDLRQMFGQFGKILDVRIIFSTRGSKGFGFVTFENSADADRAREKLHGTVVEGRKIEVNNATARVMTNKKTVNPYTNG
# B1: ACCCUAG (DNA:RNA)
# RNA: GGGAGACCGGAAUUCAGAUUGUCCACCCUAGUUAAAUCCCGUCGUAGCCACCA
# DNA 1: CAATCTGAATTCCGGTCTCCC
# DNA 2: TGGTGGCTACGACGGGATT
# B2: CUGCGCG (DNA:RNA)
# RNA: B1 RNA with A25C, C26U, C27G, U29G, A30C
# DNA 1: CAATCTGAATTCCGGTCTCCC
# DNA 2: TGGTGGCTACGACGGGATT
# B3: UCUUCUG (DNA:RNA)
# RNA: B1 RNA with A25U, C27U, C28U, U29C, A30U
# DNA 1: CAATCTGAATTCCGGTCTCCC
# DNA 2: TGGTGGCTACGACGGGATT
# B4: UGCGGUG (DNA:RNA)
# RNA: B1 RNA with A25U, C26G, C28G, U29G, A30U
# DNA 1: CAATCTGAATTCCGGTCTCCC
# DNA 2: TGGTGGCTACGACGGGATT
# B5: CUGACUC (DNA:RNA)
# RNA: GGGAGACCGGAAUUCAGAUUGUCCCUGACUCUUAAAUCCCGUCGUAGCCACCA
# DNA 1: CAATCTGAATTCCGGTCTCCC
# DNA 2: TGGTGGCTACGACGGGATT
# B6: CCCCCGU (DNA:RNA)
# RNA: B1 RNA with A25C, U29C, A30G, G31U
# DNA 1: CAATCTGAATTCCGGTCTCCC
# DNA 2: TGGTGGCTACGACGGGATT
# B7: AACCCCG (DNA:RNA)
# RNA: B1 RNA with C26A, U29C, A30C
# DNA 1: CAATCTGAATTCCGGTCTCCC
# DNA 2: TGGTGGCTACGACGGGATT
# B8: CGCUAAU (DNA:RNA)
# RNA: B1 RNA with A25C, C26G, C28U, U29A, G31U
# DNA 1: CAATCTGAATTCCGGTCTCCC
# DNA 2: TGGTGGCTACGACGGGATT
# B9: CGUCCCG (DNA:RNA)
# RNA: B1 RNA with A25C, C26G, C27U, U29C, A30C
# DNA 1: CAATCTGAATTCCGGTCTCCC
# DNA 2: TGGTGGCTACGACGGGATT
# B10: CAUGAGC (DNA:RNA)
# RNA: B5 RNA with U26A, G27U, A28G, C29A, U30G
# DNA 1: CAATCTGAATTCCGGTCTCCC
# DNA 2: TGGTGGCTACGACGGGATT
# B11: GUACUUU (DNA:RNA)
# RNA: B1 RNA with A25G, C26U, C27A, A30U, G31U
# DNA 1: CAATCTGAATTCCGGTCTCCC
# DNA 2: TGGTGGCTACGACGGGATT
# B12: UCAGCAA (DNA:RNA)
# RNA: B1 RNA with A25U, C27A, C28G, U29C, G31A
# DNA 1: CAATCTGAATTCCGGTCTCCC
# DNA 2: TGGTGGCTACGACGGGATT
# B13: UGUCAGC (DNA:RNA)
# RNA: B1 RNA with A25U, C26G, C27U, U29A, A30G, G31C
# DNA 1: CAATCTGAATTCCGGTCTCCC
# DNA 2: TGGTGGCTACGACGGGATT
# B14: UUCGCUU (DNA:RNA)
# RNA: B5 RNA with C25U, G27C, A28G, C31U
# DNA 1: CAATCTGAATTCCGGTCTCCC
# DNA 2: TGGTGGCTACGACGGGATT
# B15: AGGGGAA (DNA:RNA)
# RNA: B1 RNA with C26G, C27G, C28G, U29G, G31A
# DNA 1: CAATCTGAATTCCGGTCTCCC
# DNA 2: TGGTGGCTACGACGGGATT
# B16: UCUCGAU (DNA:RNA)
# RNA: B1 RNA with A25U, C27U, U29G, G31U
# DNA 1: CAATCTGAATTCCGGTCTCCC
# DNA 2: TGGTGGCTACGACGGGATT
# B17: UAUCUGA (DNA:RNA)
# RNA: B1 RNA with A25U, C26A, C27U, A30G, G31A
# DNA 1: CAATCTGAATTCCGGTCTCCC
# DNA 2: TGGTGGCTACGACGGGATT
# B18: CCAACUU (DNA:RNA)
# RNA: B5 RNA with U26C, G27A, C31U
# DNA 1: CAATCTGAATTCCGGTCTCCC
# DNA 2: TGGTGGCTACGACGGGATT
# B19: CGUCCAG (DNA:RNA)
# RNA: B1 RNA with A25C, C26G, C27U, U29C
# DNA 1: CAATCTGAATTCCGGTCTCCC
# DNA 2: TGGTGGCTACGACGGGATT
# B20: CGGGACC (DNA:RNA)
# RNA: B5 RNA with U26G, A28G, C29A, U30C
# DNA 1: CAATCTGAATTCCGGTCTCCC
# DNA 2: TGGTGGCTACGACGGGATT
# B21: ACACCAU (DNA:RNA)
# RNA: B1 RNA with C27A, U29C, G31U
# DNA 1: CAATCTGAATTCCGGTCTCCC
# DNA 2: TGGTGGCTACGACGGGATT
# B22: AGGCGCC (DNA:RNA)
# RNA: B1 RNA with C26G, C27G, U29G, A30C, G31C
# DNA 1: CAATCTGAATTCCGGTCTCCC
# DNA 2: TGGTGGCTACGACGGGATT
# B23: GACAACU (DNA:RNA)
# RNA: B1 RNA with A25G, C26A, C28A, U29A, A30C, G31U
# DNA 1: CAATCTGAATTCCGGTCTCCC
# DNA 2: TGGTGGCTACGACGGGATT
# B24: UAGCGAG (DNA:RNA)
# RNA: B1 RNA with A25U, C26A, C27G, U29G
# DNA 1: CAATCTGAATTCCGGTCTCCC
# DNA 2: TGGTGGCTACGACGGGATT
# B25: AUGUUGU (DNA:RNA)
# RNA: B1 RNA with C26U, C27G, C28U, A30G, G31U
# DNA 1: CAATCTGAATTCCGGTCTCCC
# DNA 2: TGGTGGCTACGACGGGATT
# B26: UGAGUUU (DNA:RNA)
# RNA: B1 RNA with A25U, C26G, C27A, C28G, A30U, G31U
# DNA 1: CAATCTGAATTCCGGTCTCCC
# DNA 2: TGGTGGCTACGACGGGATT
# B27: CCUUCAU (DNA:RNA)
# RNA: B1 RNA with A25C, C27U, C28U, U29C, G31U
# DNA 1: CAATCTGAATTCCGGTCTCCC
# DNA 2: TGGTGGCTACGACGGGATT
# B28: UAGAUGA (DNA:RNA)
# RNA: B5 RNA with C25U, U26A, C29U, U30G, C31A
# DNA 1: CAATCTGAATTCCGGTCTCCC
# DNA 2: TGGTGGCTACGACGGGATT
# B29: UCGAGAG (DNA:RNA)
# RNA: B1 RNA with A25U, C27G, C28A, U29G
# DNA 1: CAATCTGAATTCCGGTCTCCC
# DNA 2: TGGTGGCTACGACGGGATT
# B30: GCCCUAA (DNA:RNA)
# RNA: B1 RNA with A25G, G31A
# DNA 1: CAATCTGAATTCCGGTCTCCC
# DNA 2: TGGTGGCTACGACGGGATT
# B31: UGCUGGG (DNA:RNA)
# RNA: B1 RNA with A25U, C26G, C28U, U29G, A30G
# DNA 1: CAATCTGAATTCCGGTCTCCC
# DNA 2: TGGTGGCTACGACGGGATT
# Biological target: T1, RBFOX1 RRM RbFoxmut (Fox-RRM*)
# Experiment: EMSA; HiTS-Eq, 1 nM pool, 10 min; buffer printed only for the single-RNA assays: 10 mM Tris pH 7.5, 150 mM NaCl, 3.4 mM EDTA, 0.001% NP-40, 30 C
# Details: tags: His6 N-terminal (pET28a); label: 5' 32P
# In short: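 These values rest on relative association constants, computed from read-count changes of each RNA species versus the control reaction and normalised to the cognate motif. Reads came from free RNA recovered by 8% native PAGE after purified RbFox RRM (wild type or mutant) at increasing concentrations was equilibrated for 10 min in 50 µL with 1 nM of a 5′-radiolabelled pool with 7 randomized nucleotides and DNA-annealed flanks.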
row,Binder,binding signal
1,B1,0.121 KA relative to UGCAUGU
2,B2,0.186 KA relative to UGCAUGU
3,B3,0.0672 KA relative to UGCAUGU
4,B4,0.16 KA relative to UGCAUGU
5,B5,0.0745 KA relative to UGCAUGU
6,B6,0.12 KA relative to UGCAUGU
7,B7,0.0723 KA relative to UGCAUGU
8,B8,0.0911 KA relative to UGCAUGU
9,B9,0.0717 KA relative to UGCAUGU
10,B10,0.107 KA relative to UGCAUGU
11,B11,0.0719 KA relative to UGCAUGU
12,B12,0.0616 KA relative to UGCAUGU
13,B13,0.112 KA relative to UGCAUGU
14,B14,0.0731 KA relative to UGCAUGU
15,B15,0.134 KA relative to UGCAUGU
16,B16,0.082 KA relative to UGCAUGU

row,Binder,binding signal
1,B17,0.0364 KA relative to UGCAUGU
2,B18,0.0736 KA relative to UGCAUGU
3,B19,0.107 KA relative to UGCAUGU
4,B20,0.102 KA relative to UGCAUGU
5,B21,0.0962 KA relative to UGCAUGU
6,B22,0.084 KA relative to UGCAUGU
7,B23,0.049 KA relative to UGCAUGU
8,B24,0.0959 KA relative to UGCAUGU
9,B25,0.245 KA relative to UGCAUGU
10,B26,0.0702 KA relative to UGCAUGU
11,B27,0.0914 KA relative to UGCAUGU
12,B28,0.0617 KA relative to UGCAUGU
13,B29,0.126 KA relative to UGCAUGU
14,B30,0.0804 KA relative to UGCAUGU
15,B31,0.0937 KA relative to UGCAUGU
